Experimental data: PubChem BioAssay AID1454 (National Center for Advancing Translational Sciences (NCATS), 2008)
Among all 130,000 compounds or so, about 550 (0.42%) were called active. Inconclusive results, whose numbers are uncertain, are shown with a selection of clear calls. The call rests on the fitted dose curve; in most records, active means well fitted inhibition curve with a large enough effect; inconclusive means small, poorly fitted or top-dose-only effect, or effect the other way; inactive means flat fitted curve, though single readings scatter. No potency is given beside an inconclusive call; the fits are too rough.

experiment: qHTS Assay for Inhibitors of the ERK Signaling Pathway using a Homogeneous Screening Assay; Stimulation with EGF; details: HEK293-V1b, EGF-stimulated phospho-ERK AlphaScreen; activity change, negative = inhibition: at the top concentration; further: nearly all actives have a fitted effect of over 55% in size;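 on activity change, negative = inhibition: plate controls were stimulated vehicle wells for no effect and unstimulated vehicle basal for full effect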
Outline: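 Homogeneous cell-based phospho-ERK assay: HEK293/V1b cells in 1% FBS, compound 30 min then EGF 5 min, AlphaScreen luminescence. Activity normalized between DMSO and 25 nM EGF controls; AC50 from Hill modelling.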
Potency means the concentration at half of the fitted maximal effect; tags describe the fitted curve by direction and shape.

| Compound | activity change, negative = inhibition | Potency |
| --- | --- | --- |
| C=C(CO)C1Cc2c(ccc3c(=O)c4c(oc23)COc2cc(OC)c(OC)cc2-4)O1 (stereo not given) | inactive: -16.6% | – |
| CC(C)(C)c1ccc(NC(=O)Nc2ccc(F)cc2)cc1 | – | inconclusive [inhibitor, single point] |
| Cc1cccc(C(=O)NC2CCN(C(=O)Nc3ccccc3C)CC2)c1 | – | inconclusive [activator, partial curve, poor fit] |
| O=C(CC1C=Cc2ccccc2N1C(=O)c1ccccc1)c1ccccc1 (stereo not given) | – | inconclusive [inhibitor, single point] |
| Cc1ccc(NC(=S)N/N=C2\CCCCC2C)cc1 (stereo not given) | – | inconclusive [inhibitor, partial curve] |
| COCCn1c(=O)c(-c2ccc(OC)cc2)nc2cnc(Oc3ccccc3)nc21 | inactive: 14.4% | – |
| CCOC(=O)C1(CCc2ccccc2)CCN(Cc2cnc(N(C)C)s2)CC1 | – | inconclusive [inhibitor, single point] |
| O=CN/C=C/c1cc(F)cc(F)c1F | inactive: -14.6% | – |
| C#CCOc1nc(Nc2cccc([N+](=O)[O-])c2)nc(OCC#C)n1 | – | inconclusive [inhibitor, single point] |
| COCCN1C(=O)/C(=C/c2ccc(N3CCCC3)cc2C)SC1=S | – | active: 22.4 µM |
| COc1ccc(-c2nc3cnc(OC)nc3n(Cc3cccs3)c2=O)cc1 | inactive: -4.26% | – |
| CCOC(=O)c1c(CSc2ccc(C)cc2)oc2ccc(O)cc12 | – | inconclusive [inhibitor, single point] |
| COc1ccccc1CCn1c(=O)c(-c2cc(F)cc(F)c2)nc2cncnc21 | – | inconclusive [inhibitor, partial curve, poor fit] |
| CC(C)=CCc1c2c(c3occ(-c4ccc(O)c(O)c4)c(=O)c3c1O)C=CC(C)(C)O2 | – | inconclusive [inhibitor, single point] |
| CC1(C)O[C@@H]2C[C@H]3[C@@H]4C[C@H](F)C5=CC(=O)C=C[C@]5(C)[C@@]4(F)[C@@H](O)C[C@]3(C)[C@]2(C(=O)CO)O1 | – | inconclusive [inhibitor, single point] |
| COc1cccc(N2CCN(C(=O)CCNS(=O)(=O)c3ccc4c(c3)c(=O)n(C)c(=O)n4C)CC2)c1 | – | inconclusive [inhibitor, single point] |
| CC1(C)[C@@H](O)CC[C@]2(C)C3C(O)C=C4[C@H]5C[C@@](C)(C(=O)O)CC[C@]5(C)CC[C@]4(C)[C@]3(C)CC[C@@H]12 (stereo not given in full) | – | inconclusive [inhibitor, single point] |
| CN(C)c1ccc(/C=C(\C#N)c2ccccn2)cc1 | inactive: 3.29% | – |
| CN(c1cccc(NC(=O)c2ccc(C(C)(C)C)cc2)c1)S(C)(=O)=O | – | inconclusive [inhibitor, single point] |
| CCn1c(SCC(=O)Nc2nccs2)nnc1-c1ccco1 | – | inconclusive [inhibitor, partial curve, poor fit] |
| Cc1ccc(S(=O)(=O)NC(C)(C)CN2CCC(Cc3ccccc3)CC2)cc1 | – | inconclusive [inhibitor, single point] |
| CCCCCCCCCCCCCCCC(=O)N[C@@H](COP(=O)(O)O)C(=O)O | inactive: 4.17% | – |

| Compound | activity change, negative = inhibition | Potency |
| --- | --- | --- |
| CC(C)=CCN1CCN(Cc2nc(-c3ccc(F)cc3)cs2)CC1CCO (stereo not given) | – | inconclusive [inhibitor, partial curve] |
| CCCCSC1=N/C(=C/c2ccsc2)C(=O)N1c1ccccc1 | – | inconclusive [activator, single point] |
| COc1ccc(CCNC(=O)CC(c2ccccc2)c2cccc(C)c2O)cc1OC (stereo not given) | – | inconclusive [inhibitor, single point] |
| CCOC(=O)c1cnc2c(-c3ccc(Cl)cc3)cnn2c1C | inactive: 9.27% | – |
| COc1ccc(N=Nc2nc(-c3ccccc3)c(-c3ccccc3)[nH]2)cc1 | – | inconclusive [inhibitor, partial curve] |
| O=C(CSc1nccn1-c1cccc(Cl)c1)NO | – | inconclusive [inhibitor, full curve, poor fit] |
| O=C(O)c1ccc(N2C(=O)/C(=C\c3ccccc3)N=C2c2ccccc2)cc1 | inactive: -7.12% [at 57.5 µM] | – |
| Cc1nc(Nc2ccccc2)c2nc(-c3ccccc3)n(CCN3CCOCC3)c2n1 | – | inconclusive [inhibitor, partial curve] |
| Cc1cc(C(=O)OCC(=O)Nc2c(F)cccc2F)c(C)n1-c1ccccc1 | – | inconclusive [inhibitor, partial curve] |
| O=C(C1=C(O)C(=O)N(Cc2ccco2)C1c1cccs1)c1cccs1 (stereo not given) | inactive: 3.28% | – |
| Cc1nc(NC2CCCCC2)c2nc(-c3ccccc3)n(CCN(C)C)c2n1 | – | inconclusive [inhibitor, full curve] |
| COC(=O)c1cc(=O)n(Cc2ccc(F)cc2)c(=Nc2ccccc2)s1 | – | inconclusive [inhibitor, partial curve] |
| CCOC(=O)N1CCN(c2cc(NCCO)c([N+](=O)[O-])c3nonc23)CC1 | inactive: -0.339% | – |
| CC(C)(C)C(=O)Nc1ccc(Sc2ccc([N+](=O)[O-])cc2)cc1 | – | inconclusive [inhibitor, single point] |
| COc1ccc(CN=C2NN=C(c3ccccc3)CS2)cc1 | – | inconclusive [activator, single point] |
| NCCCCCC(=O)N/N=C/c1ccc2nccnc2c1 | inactive: -2.5% [at 57.5 µM] | – |
| O=C(OCCN1C(=O)c2cccc3c(N4CCOCC4)ccc(c23)C1=O)c1ccc(Cl)cc1Cl | – | inconclusive [activator, partial curve] |
| O=C(/C=C/c1ccc(N2CCCCC2)c([N+](=O)[O-])c1)c1ccc(S(=O)(=O)N2CCCC2)cc1 | – | inconclusive [inhibitor, partial curve] |
| CC(C)(C)c1cc(C(=O)NNC(=O)c2ccc(Cl)cc2)no1 | – | inconclusive [inhibitor, single point] |
| CCOC(=O)c1ccc(Nc2sc(C(=O)c3cccc([N+](=O)[O-])c3)c(N)c2C#N)cc1 | – | inconclusive [inhibitor, partial curve, poor fit] |
| CC(C)(C)c1ccc(C(=O)/C(C#N)=C/c2cccs2)cc1 | – | inconclusive [inhibitor, single point] |
| COc1ccccc1NS(=O)(=O)c1cccc(NC(=O)c2[nH]c(C)c(C(C)=O)c2C)c1 | – | inconclusive [inhibitor, partial curve, poor fit] |

| Compound | activity change, negative = inhibition | Potency |
| --- | --- | --- |
| CCc1cc(-c2[nH]ncc2-c2ccc3c(c2)OCO3)c(O)cc1O | inactive: -7.54% [at 57.5 µM] | – |
| CCCCn1c(N)c(N(CC)C(=O)c2cccc(OC)c2)c(=O)[nH]c1=O | inactive: -2.02% | – |
| Cc1cc(C(=O)COC(=O)Cc2n[nH]c(=O)c3ccccc23)c(C)n1-c1ccc2c(c1)OCCO2 | – | inconclusive [inhibitor, single point] |
| Cc1ccc2nc(-c3ccc(NC(=S)NC4CC(C)(C)NC(C)(C)C4)cc3)sc2c1 | – | inconclusive [inhibitor, single point] |
| COc1ccc(-n2cccc2/C=C/[N+](=O)[O-])cc1 | – | inconclusive [inhibitor, single point] |
| COC1CCC(C(=O)c2ccc3nc4c(cc3c2)CCCO4)CC1 (stereo not given) | – | inconclusive [inhibitor, single point] |
| CCNC(=O)c1ccc(C23CC4CC(CC(C4)C2)C3)o1 | – | inconclusive [inhibitor, full curve, poor fit] |
| NS(=O)(=O)c1ccc(N/N=C/c2cn(-c3ccccc3)nc2-c2ccccc2)c([N+](=O)[O-])c1 | – | inconclusive [inhibitor, partial curve] |
| COc1ccc(-c2csc(NC(=O)C3COc4ccccc4O3)n2)cc1OC (stereo not given) | – | inconclusive [inhibitor, full curve] |
| CC(=O)Oc1ccc(C(=O)c2ccccc2)c(OC(C)=O)c1 | – | inconclusive [inhibitor, single point] |
| COC(=O)N/N=C/c1cn(CC(C)COc2ccccc2)c2ccccc12 (stereo not given) | – | inconclusive [inhibitor, single point] |
| CN(C)c1ccc(-c2cncnc2NCc2ccccc2)cc1 | – | inconclusive [inhibitor, single point] |
| Cc1ccc(C(=O)COc2ccccc2-c2ccccc2)cc1 | – | inconclusive [activator, single point] |
| Cc1ccc(NS(=O)(=O)c2ccc(C(=O)N3CCN(c4ncccn4)CC3)cc2)cc1 | inactive: 0.292% | – |
| CCN(CC)c1ccc(/C=C2/SC(=O)N(C(C)C)C2=O)o1 | – | active: 28.2 µM |
| COc1ccc(CCNc2ccc(S(=O)(=O)N3CCCC3)cc2[N+](=O)[O-])cc1 | – | inconclusive [inhibitor, single point] |
| CC(C)Cn1c(=O)[nH]c(=O)c2c(C(F)(F)F)cc(-c3ccccc3)nc21 | – | inconclusive [inhibitor, single point] |
| COC(=O)c1sc2nc(C)cc(-c3ccccc3)c2c1N | – | inconclusive [activator, partial curve] |
| O=[N+]([O-])c1ccccc1Nc1ccc(O)cc1 | – | inconclusive [inhibitor, single point] |
| Cn1c(NC(=O)c2ccc(F)cc2)c(-c2cccs2)c(=O)c2ccccc21 | – | inconclusive [inhibitor, partial curve] |
| CCCCN(CCCC)CC(O)COc1ccc(Br)cc1 (stereo not given) | – | inconclusive [inhibitor, single point] |
